# Assay results from paper PMC11995724, “Antibiotic target discovery by integrated phenotypic and activity-based profiling of electrophilic fragments” (Cell chemical biology, 2025).
# Out of some 3,200 compounds screened, about 75 (2%) showed an effect of 50% or more. The list shows a part of the results.
# System: T1, S. aureus MSSA476
# T1 construct: MSSA476
# Parameters: species or system S. aureus MSSA476 (TSB) or V. cholerae SAD30 (LB); 384-well bacterial growth screen at 25 uM, OD600 relative to DMSO control
# Details: relative growth, OD600, TSB; 25 µM; inhibitor
row,Compound,% of control remaining [%]
1,"CCc1ccc(OC(C)C(=O)N2CCN(C(=O)C(C)Cl)CC2)cc1 (centres unmarked) [6-H16, 1-[4-(2-chloropropanoyl)piperazin-1-yl]-2-(4-ethylphenoxy)propan-1-one]",75.122
2,"Cc1cc(C(=O)CCl)c(C)n1CCc1ccc(Cl)cc1 [10-N16, 2-chloro-1-{1-[2-(4-chlorophenyl)ethyl]-2,5-dimethyl-1H-pyrrol-3-yl}ethan-1-one]",5.9375
3,"C=CC(=O)NCc1cnc(CC(C)C)s1 [1-J10, N-{[2-(2-methylpropyl)-1,3-thiazol-5-yl]methyl}prop-2-enamide]",117.099
4,"C=CC(=O)N1CCCN(S(=O)(=O)c2ccc(OC)cc2)CC1 [3-G10, 1-[4-(4-methoxybenzenesulfonyl)-1,4-diazepan-1-yl]prop-2-en-1-one]",104.484
5,"C=CC(=O)NC1(Cc2nnc3ccccn23)CCCCC1 [2-L03, N-[1-({[1,2,4]triazolo[4,3-a]pyridin-3-yl}methyl)cyclohexyl]prop-2-enamide]",88.7728
6,"CCOC(=O)c1ccccc1NC(=O)CCl [4-B17, ethyl 2-(2-chloroacetamido)benzoate]",113.959
7,"Cc1ccc(C=C(C#N)C(=O)Nc2cccc3ccccc23)cc1 [8-M14, 2-cyano-3-(4-methylphenyl)-N-(naphthalen-1-yl)prop-2-enamide]",74.0249
8,"C=CCNC(=O)C(C#N)=Cc1ccc(C)s1 [9-F05, 2-cyano-3-(5-methylthiophen-2-yl)-N-(prop-2-en-1-yl)prop-2-enamide]",101.273
9,"C=CCNC(=O)C(C#N)=Cc1ccc(C)c(C)c1 [9-D21, 2-cyano-3-(3,4-dimethylphenyl)-N-(prop-2-en-1-yl)prop-2-enamide]",99.176
10,"C=CC(=O)Nc1conc1-c1ccccc1 [1-I09, N-(3-phenyl-1,2-oxazol-4-yl)prop-2-enamide]",111.473
11,"COc1ccc(-c2csc(NC(=O)CCl)n2)cc1 [4-N06, 2-chloro-N-[4-(4-methoxyphenyl)-1,3-thiazol-2-yl]acetamide]",111.291
12,"CC(C)NC(=O)C(C#N)=Cc1cnn(-c2ccc(Cl)cc2)c1 [8-I08, 3-[1-(4-chlorophenyl)-1H-pyrazol-4-yl]-2-cyano-N-(propan-2-yl)prop-2-enamide]",96.5975
13,"CC(NC(=O)C(C#N)=Cc1ccco1)c1cccc(-n2ccnc2)c1 (centres unmarked) [9-H04, 2-cyano-3-(furan-2-yl)-N-{1-[3-(1H-imidazol-1-yl)phenyl]ethyl}prop-2-enamide]",97.3783
14,"C=CC(=O)N1CCC(n2ccnn2)CC1 [3-K09, 1-[4-(1H-1,2,3-triazol-1-yl)piperidin-1-yl]prop-2-en-1-one]",109.012
15,"O=C(CCl)Nc1cccc(S(=O)(=O)N2CCOCC2)c1 [4-P08, 2-chloro-N-[3-(morpholine-4-sulfonyl)phenyl]acetamide]",119.295
16,"Cc1c(C=C(C#N)C(=O)Nc2ccccc2F)cc(C#N)n1C [8-A13, 2-cyano-3-(5-cyano-1,2-dimethyl-1H-pyrrol-3-yl)-N-(2-fluorophenyl)prop-2-enamide]",117.178
17,"CC1CCN(C(=O)CCl)c2cc(Cl)ccc2S1 (centres unmarked) [4-G16, 2-chloro-1-(7-chloro-2-methyl-2,3,4,5-tetrahydro-1,5-benzothiazepin-5-yl)ethan-1-one]",93.3778
18,"C=CC(=O)NCc1ccccc1-n1nc(C)cc1C [3-P19, N-{[2-(3,5-dimethyl-1H-pyrazol-1-yl)phenyl]methyl}prop-2-enamide]",112.843
19,"N#CC(=Cc1ccc(Cl)cc1Cl)C(N)=O [8-H17, 2-cyano-3-(2,4-dichlorophenyl)prop-2-enamide]",123.485
20,"N#CC(C(=O)Nc1ccc(Cl)cc1)=C(S)Nc1ccccc1 [8-H22, N-(4-chlorophenyl)-2-cyano-3-(phenylamino)-3-sulfanylprop-2-enamide]",74.3568
21,"C=CC(=O)N1CCCc2cccc(F)c21 [1-L19, 1-(8-fluoro-1,2,3,4-tetrahydroquinolin-1-yl)prop-2-en-1-one]",125.538
22,"CC(Cl)C(=O)N1CCC(n2ncc3ccccc32)C1 (centres unmarked) [7-K04, 2-chloro-1-[3-(1H-indazol-1-yl)pyrrolidin-1-yl]propan-1-one]",74.4113

row,Compound,% of control remaining [%]
1,"Cl.O=C(CCl)c1ccncc1 [10-M09, 2-chloro-1-(pyridin-4-yl)ethan-1-one hydrochloride]",111.875
2,"C=CC(=O)NCCn1nnnc1C [2-A03, N-[2-(5-methyl-1H-1,2,3,4-tetrazol-1-yl)ethyl]prop-2-enamide]",125.326
3,"CC(C)Cc1ccc(C(C)NC(=O)CCl)cc1 (centres unmarked) [4-H03, 2-chloro-N-{1-[4-(2-methylpropyl)phenyl]ethyl}acetamide]",75.8456
4,"CCC(=O)NC1CCN(C(=O)CCl)C1 (centres unmarked) [5-G04, N-[1-(2-chloroacetyl)pyrrolidin-3-yl]propanamide]",75.4098
5,"COc1ccccc1C=CC=C(C#N)C(=O)Nc1ccccn1 [9-L17, 2-cyano-5-(2-methoxyphenyl)-N-(pyridin-2-yl)penta-2,4-dienamide]",86.8914
6,"O=C(CCl)NCc1ccccc1CS(=O)(=O)N1CCOCC1 [4-G08, 2-chloro-N-({2-[(morpholine-4-sulfonyl)methyl]phenyl}methyl)acetamide]",110.91
7,"C=CC(=O)Nc1cc(NC(=O)C2(OC)CCOC2)ccc1F (centres unmarked) [3-D05, N-[4-fluoro-3-(prop-2-enamido)phenyl]-3-methoxyoxolane-3-carboxamide]",96.8219
8,"O=C(CCl)NCCc1nc2c(s1)CCCCC2 [4-J21, 2-chloro-N-(2-{4H,5H,6H,7H,8H-cyclohepta[d][1,3]thiazol-2-yl}ethyl)acetamide]",93.3778
9,"Cc1cc(C(=O)CCl)c(C)n1-c1cc(Cl)cc(Cl)c1 [10-I04, 2-chloro-1-[1-(3,5-dichlorophenyl)-2,5-dimethyl-1H-pyrrol-3-yl]ethan-1-one]",0
10,"C=CC(=O)N1CCC(c2nnnn2C)CC1 [2-I06, 1-[4-(1-methyl-1H-1,2,3,4-tetrazol-5-yl)piperidin-1-yl]prop-2-en-1-one]",104.439
11,"CC(C)NC(=O)C(C#N)=Cc1cc(F)ccc1F [8-C08, 2-cyano-3-(2,5-difluorophenyl)-N-(propan-2-yl)prop-2-enamide]",136.1
12,"Cc1ccc(-c2csc(NC(=O)CCl)n2)cc1C [5-F16, 2-chloro-N-[4-(3,4-dimethylphenyl)-1,3-thiazol-2-yl]acetamide]",97.9964
13,"C=CC(=O)NCc1cc(Cl)cc(S(C)(=O)=O)c1 [3-N15, N-[(3-chloro-5-methanesulfonylphenyl)methyl]prop-2-enamide]",97.5185
14,"C=CC(=O)Nc1cc(NC(=O)[C@H]2C[C@@H](C(C)=O)C2(C)C)ccc1F [2-H22, (1S,3R)-3-acetyl-N-[4-fluoro-3-(prop-2-enamido)phenyl]-2,2-dimethylcyclobutane-1-carboxamide]",99.2167
15,"C=CC(=O)Nc1ccc2cc(N(C)C)ccc2c1 [1-E19, N-[6-(dimethylamino)naphthalen-2-yl]prop-2-enamide]",114.286
16,"COc1ccc(C=C(C#N)C(=O)Nc2c(C)cccc2C)cc1OC [8-A17, 2-cyano-3-(3,4-dimethoxyphenyl)-N-(2,6-dimethylphenyl)prop-2-enamide]",99.2531
17,"C=CC(=O)Nc1cnn(-c2ccncc2)c1C(F)F [1-O09, N-[5-(difluoromethyl)-1-(pyridin-4-yl)-1H-pyrazol-4-yl]prop-2-enamide]",115.692
18,"CC(Cl)C(=O)N1CCC(N(C)Cc2cc(=O)[nH]c(N(C)C)n2)C1 (centres unmarked) [7-E18, 6-({[1-(2-chloropropanoyl)pyrrolidin-3-yl](methyl)amino}methyl)-2-(dimethylamino)-3,4-dihydropyrimidin-4-one]",109.89
19,"CCCNC(=O)C(C#N)=Cc1cnc2c(C)cccn12 [9-N14, 2-cyano-3-{8-methylimidazo[1,2-a]pyridin-3-yl}-N-propylprop-2-enamide]",88.6891
20,"CCOC(=O)c1c(NC(=O)C(C)Cl)sc2c1CCC(C)C2 (centres unmarked) [5-D04, ethyl 2-(2-chloropropanamido)-6-methyl-4,5,6,7-tetrahydro-1-benzothiophene-3-carboxylate]",162.477
21,"Cc1nn(-c2ccccc2)c(C)c1C=C(C#N)C(=O)Nc1nccs1 [9-E07, 2-cyano-3-(3,5-dimethyl-1-phenyl-1H-pyrazol-4-yl)-N-(1,3-thiazol-2-yl)prop-2-enamide]",103.67
22,"CC(Cl)C(=O)N1CCCC1c1nc(N(C)C)no1 (centres unmarked) [7-F19, 2-chloro-1-{2-[3-(dimethylamino)-1,2,4-oxadiazol-5-yl]pyrrolidin-1-yl}propan-1-one]",110.518
